The list shows a part of the results.
B1: PhoQ; a variant is named by its letters at X, in order, P23837 (parent)
chain: MKKLLRLFFPLSLRVRFLLATAAVVLVLSLAYGMVALIGYSVSFDKTTFRLLRGESNLFYTLAKWENNKLHVELPENIDKQSPTMTLIYDENGQLLWAQRDVPWLMKMIQPDWLKSNGFHEIEADVNDTSLLLSGDHSIQQQLQEVREDDDDAEMTHSVAVNVYPATSRMPKLTIVVVDTIPVELKSSYMVWSWFIYVLSANLLLVIPLLWVAAWWSLRPIEALAKEVRELEEHNRELLNPATTRELTSLVRNLNRLLKSERERYDKYRTTLTDLTHSLKTPLXXLQXXLRSLRSEKMSVSDAEPVMLEQISRISQQIGYYLHRASMRGGTLLSRELHPVAPLLDNLTSALNKVYQRKGVNISLDISPEISFVGEQNDFVEVMGNVLDNACKYCLEFVEISARQTDEHLYIVVEDDGPGIPLSKREVIFDRGQRVDTLRPGQGVGLAVAREITEQYEGKIVAGESMLGGARMEVIFGRQHSAPKDE

Variants of: B1
Experiment: enrichment ratio after two sorts for PhoP signalling (ratio (wild type AVST 3.29)); higher = more functional
Conditions: with PhoP (E. coli)

| Variant | enrichment ratio |
| --- | --- |
| PYCT | ≤ 0.25 |
| LDPK | ≤ 0.25 |
| NRCY | ≤ 0.25 |
| SFCM | 2.09 |
| QGDY | 7.92 |
| FQHK | ≤ 0.25 |
| ISPW | ≤ 0.25 |
| PTHL | ≤ 0.25 |
| IRGS | ≤ 0.25 |
| YFWY | ≤ 0.25 |
| LGLH | ≤ 0.25 |
| IHCI | ≤ 0.25 |
| VESK | ≤ 0.25 |
| KPQP | ≤ 0.25 |
| DESG | ≤ 0.25 |
| TVVD | ≤ 0.25 |
| RRFP | ≤ 0.25 |
| HDCE | ≤ 0.25 |
| TRAA | ≤ 0.25 |
| RCVI | ≤ 0.25 |
| PWHF | ≤ 0.25 |
| FTGC | ≤ 0.25 |
| ERNF | ≤ 0.25 |
| YVHS | ≤ 0.25 |
| GVFL | ≤ 0.25 |
| TDPY | ≤ 0.25 |

| Variant | enrichment ratio |
| --- | --- |
| NSVW | ≤ 0.25 |
| MWYL | ≤ 0.25 |
| NALK | ≤ 0.25 |
| NETD | ≤ 0.25 |
| SWWE | ≤ 0.25 |
| KAGS | ≤ 0.25 |
| NGTL | ≤ 0.25 |
| REHR | ≤ 0.25 |
| GWLI | ≤ 0.25 |
| GWVC | ≤ 0.25 |
| YTIW | ≤ 0.25 |
| KINQ | ≤ 0.25 |
| ALYL | ≤ 0.25 |
| YFEI | ≤ 0.25 |
| RNTT | ≤ 0.25 |
| LWNN | ≤ 0.25 |
| LGNL | ≤ 0.25 |
| QKDM | ≤ 0.25 |
| QPVV | ≤ 0.25 |
| HIIF | ≤ 0.25 |
| LKLN | ≤ 0.25 |
| HGWL | ≤ 0.25 |
| QRPR | ≤ 0.25 |
| LFAA | ≤ 0.25 |
| VPDN | ≤ 0.25 |
| AEHP | ≤ 0.25 |

| Variant | enrichment ratio |
| --- | --- |
| RPWW | ≤ 0.25 |
| LQMC | ≤ 0.25 |
| GACI | ≤ 0.25 |
| SGQR | ≤ 0.25 |
| KVEW | ≤ 0.25 |
| GCPL | ≤ 0.25 |
| DEMQ | ≤ 0.25 |
| ITNG | ≤ 0.25 |
| MFWA | ≤ 0.25 |
| NIML | 6.63 |
| QMID | ≤ 0.25 |
| MDPN | ≤ 0.25 |
| QQAS | ≤ 0.25 |
| NFLP | ≤ 0.25 |
| MSIE | ≤ 0.25 |
| AQSS | 11.7 |
| DHHK | ≤ 0.25 |
| WKVH | ≤ 0.25 |
| GDCK | ≤ 0.25 |
| SLGF | 10.1 |
| QSKL | ≤ 0.25 |
| LHRS | ≤ 0.25 |
| WEMF | ≤ 0.25 |
| VDME | ≤ 0.25 |
| GLYK | ≤ 0.25 |
| VYLG | ≤ 0.25 |

| Variant | enrichment ratio |
| --- | --- |
| LKNM | ≤ 0.25 |
| EHVK | ≤ 0.25 |
| VDNW | ≤ 0.25 |
| QTIK | ≤ 0.25 |
| VLSH | ≤ 0.25 |
| NMQV | ≤ 0.25 |
| NWHT | ≤ 0.25 |
| TYQL | 2.61 |
| PSHR | ≤ 0.25 |
| GWIP | ≤ 0.25 |
| SMQK | ≤ 0.25 |
| EEMY | ≤ 0.25 |
| GRCE | ≤ 0.25 |
| KKRF | ≤ 0.25 |
| DCQN | ≤ 0.25 |
| VENM | ≤ 0.25 |
| NMFT | ≤ 0.25 |
| ISME | ≤ 0.25 |
| RSWP | ≤ 0.25 |
| EHNP | ≤ 0.25 |
| WELM | 17.4 |
| EPLL | ≤ 0.25 |
| MRGF | ≤ 0.25 |
| WMMH | ≤ 0.25 |
| GHRV | ≤ 0.25 |
| GMKA | ≤ 0.25 |

| Variant | enrichment ratio |
| --- | --- |
| MCAR | ≤ 0.25 |
| WHPP | ≤ 0.25 |
| HNRC | ≤ 0.25 |
| VRFN | ≤ 0.25 |
| QSTT | ≤ 0.25 |
| QSGA | 0.764 |
| ARSN | ≤ 0.25 |
| FAQE | ≤ 0.25 |
| AVGY | 2.53 |
| YWRN | ≤ 0.25 |
| PIWQ | ≤ 0.25 |
| CYWK | ≤ 0.25 |
| FYGL | ≤ 0.25 |
| MRYY | ≤ 0.25 |
| KESW | ≤ 0.25 |
| YNAN | ≤ 0.25 |
| DHSR | ≤ 0.25 |
| VGDH | ≤ 0.25 |
| SFIP | ≤ 0.25 |
| FCFN | ≤ 0.25 |
| RYCY | ≤ 0.25 |
| HKMR | ≤ 0.25 |
| QQDL | ≤ 0.25 |
| SMEW | ≤ 0.25 |
| GAVS | ≤ 0.25 |
| FTVS | ≤ 0.25 |

| Variant | enrichment ratio |
| --- | --- |
| FCGN | ≤ 0.25 |
| VRSV | ≤ 0.25 |
| ASKR | ≤ 0.25 |
| IDTL | ≤ 0.25 |
| YTDS | ≤ 0.25 |
| RHDR | ≤ 0.25 |
| FDTC | ≤ 0.25 |
| ENFQ | ≤ 0.25 |
| IYSY | ≤ 0.25 |
| LVEH | ≤ 0.25 |
| RNNR | ≤ 0.25 |
| PNSR | ≤ 0.25 |
| LIVD | ≤ 0.25 |
| SSRF | ≤ 0.25 |
| DISH | ≤ 0.25 |
| VRWP | ≤ 0.25 |
| DMYV | ≤ 0.25 |
| DTME | ≤ 0.25 |
| DILT | ≤ 0.25 |
| GSER | ≤ 0.25 |
| DPWT | ≤ 0.25 |
| AFGE | ≤ 0.25 |
| MSCQ | 1.67 |
